From PubChem BioAssay AID2546 (National Center for Advancing Translational Sciences (NCATS), 2010)
The campaign covered roughly 310,000 compounds. About 11,000 (3.5%) were called active. The shares of active, inactive and inconclusive entries below differ from those in the screen. Calls come from the whole dose curve; as a rule, active = well fitted inhibition curve with a large enough effect; inconclusive = small, poorly fitted or top-dose-only effect, or effect the other way; inactive = flat fitted curve, though single readings scatter. No potency is given beside an inconclusive call; the fits are too rough.

assay: VP16 counterscreen qHTS for inhibitors of ROR gamma transcriptional activity; conditions: Drosophila S2 Gal4-VP16 UAS-luciferase, luminescence, 20 h; series mostly up to 53.6 µM;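 note: Gal4-VP16 expression switched on by copper sulfate through the metallothionein promoter; nearly all actives have a fitted effect of over 50% in size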
Potency is the fitted concentration of half-maximal effect; tags give direction and shape of the fitted curve.

| Structure (SMILES) | Potency |
| --- | --- |
| CC(CC(=O)Nc1ncc([N+](=O)[O-])s1)c1ccccc1 (stereo not drawn) | inconclusive [inhibitor, single point] |
| O=C(NCc1ccccn1)c1c(O)c2cccc3c2n(c1=O)CC3 | inconclusive [inhibitor, partial curve] |
| CCn1ncc(/C=N\NC(=O)c2csc3ccccc23)c1C | inconclusive [inhibitor, single point] |
| CCOc1ccc(NC(=O)C(Cc2ccccc2)N2C(=O)c3cccc4cccc(c34)C2=O)cc1 (stereo not drawn) | inconclusive [inhibitor, single point] |
| COc1ccc(CC(=O)Nc2cccc(S(=O)(=O)N3CCCCCC3)c2)cc1OC | active: 11.2 µM |
| O=C(COc1ccc(Cl)cc1)Nc1ccccc1Cl | inactive |
| Cc1cc(O)c(C(C)C)cc1N=C1CSC(=O)N1 | inconclusive [inhibitor, single point] |
| Cc1ccc(NC(=S)N2CCN(CCN3C(=O)c4cccc5cccc(c45)C3=O)CC2)cc1 | inconclusive [inhibitor, single point] |
| CC(NC(=O)Nc1ccc(Cl)cc1)c1ccccc1 (stereo not drawn) | inactive |
| Cn1nccc1C(=O)Nc1sc2c(c1C(N)=O)CCCC2 | inconclusive [activator, partial curve, poor fit] |
| O=[N+]([O-])c1cc(Cl)ccc1-c1nc(-c2ccccc2)no1 | inconclusive [activator, partial curve, poor fit] |
| Nc1c(C(=O)NCc2ccc3c(c2)OCO3)nnn1Cc1ccc(Br)cc1 | inconclusive [inhibitor, single point] |
| Nc1ccc2nn(-c3cccc4ccccc34)nc2c1 | inactive |
| COc1cccc(CN(C)C(=O)c2ccc(N3CCCC3)c([N+](=O)[O-])c2)c1 | inconclusive [inhibitor, single point] |
| CCOc1ccc2nc(N/C(N)=N/C(=S)Nc3ccc(OC)cc3)nc(C)c2c1 | inconclusive [inhibitor, partial curve] |
| O=C(c1ccc(N2CCN(C(=O)c3ccc(F)c(F)c3)CC2)cc1)c1cccc(F)c1 | inconclusive [inhibitor, full curve] |
| CCCCc1ccc(N=N/C(C(=O)Nc2ccccc2OC)=C(/C)O)cc1 | inconclusive [activator, single point] |
| COc1ccc(OC)c([C@@H]2OCCC=C[C@H]2C)c1 | inconclusive [activator, single point] |
| Cc1ccc(C)c(NC(=S)NNc2ccc(F)cc2F)c1 | active: 3.16 µM |
| COc1ccccc1Cn1c(=S)[nH]c2cc(C(=O)NCC(OC)OC)ccc2c1=O | inconclusive [inhibitor, single point] |
| N#CC1=C(S)N=C(N)C(c2nc(-c3ccccc3)cs2)C12CCCCC2 (stereo not drawn) | inconclusive [inhibitor, single point] |
| Cc1ccc(/C=N/NC(=O)c2cc(C3CC3)nc3ccccc23)o1 | inconclusive [inhibitor, single point] |

| Structure (SMILES) | Potency |
| --- | --- |
| CC(C)CCOC(=O)c1ccc(N(C)C)cc1 | inconclusive [activator, single point] |
| COc1ccc(CCNC(=O)CSCc2ccc(Br)cc2)cc1OC | inactive |
| COc1ccc(Cl)cc1NC(=O)Nc1cc(C)on1 | inconclusive [inhibitor, single point] |
| CCC(C)(C)n1nnnc1CN1CCc2ccccc21 | inconclusive [inhibitor, single point] |
| CCN(CC)c1ccc(/C=N/NC(=O)c2ccoc2C)c(O)c1 | active: 3.55 µM |
| Cn1c(=O)c2c(nc(NCc3ccco3)n2Cc2ccc(Cl)cc2Cl)n(C)c1=O | active: 6.31 µM |
| COc1ccc(-c2cn3c(C)c(C(=O)Nc4cc(NC(C)=O)ccc4OC)sc3n2)cc1 | inconclusive [inhibitor, partial curve] |
| Nc1ccc(C(=O)N/N=C/c2cn(Cc3ccccc3F)c3ccccc23)cc1 | inconclusive [inhibitor, single point] |
| Cc1c(NC(=O)Nc2cccs2)cccc1[N+](=O)[O-] | inconclusive [inhibitor, single point] |
| Cc1nn2c(NCCN(C)C)c3c(nc2c1-c1ccccc1)CCC3 | active: 0.794 µM |
| Cn1c(SCc2ccc([N+](=O)[O-])cc2)nc2c(c1=O)SCC2 | inconclusive [inhibitor, single point] |
| COC(=O)c1cccc(NC(=O)Cc2ccccc2[N+](=O)[O-])c1C | inconclusive [inhibitor, partial curve, poor fit] |
| COc1ccc(C(=O)Nc2ccc3ccccc3n2)c(OC)c1OC | active: 10 µM |
| COc1ccc(OC)c(NC(=O)Nc2nnc(N3CCCCC3C)s2)c1 (stereo not drawn) | inconclusive [inhibitor, single point] |
| Cc1ccc2cc(CN(CCCO)S(=O)(=O)c3cccc4nsnc34)c(=O)[nH]c2c1 | inconclusive [inhibitor, full curve, poor fit] |
| Cc1cc(C)n2cc(CSc3nc4ccccc4s3)nc2n1 | inconclusive [inhibitor, partial curve] |
| CN(C)S(=O)(=O)c1cccc(-c2csc(N/N=C/c3ccco3)n2)c1 | inconclusive [inhibitor, single point] |
| CC(C)C(C(=O)Nc1nccs1)c1ccc(Cl)cc1 (stereo not drawn) | inconclusive [inhibitor, single point] |
| Oc1c(Br)cc2oc3c(c2c1CNCc1ccccc1)CCCC3 | inconclusive [inhibitor, single point] |
| O=c1c2c3n(c(=S)nc2[nH]n1-c1ccccc1)CCCCC3 | inconclusive [inhibitor, single point] |
| CCCC(CCC)C(=O)Nc1ccc2c(c1)N(C(=O)CCN1CCN(C)CC1)c1ccccc1CC2 | inactive |
